According to PubChem BioAssay AID1745853 (National Center for Advancing Translational Sciences (NCATS), 2022):
Values joined by “and” are separate entries in the source; they are usually repeats but may differ in a detail not shown here. Identical values can stand only once. This is one part of the list. Shown are side measurements of this screen, not its main read-out; they come without a call.

How the values were obtained:
Assay in all cases: Primary Screen for Target Class Profiling of Small Molecule Inhibitors of Methyltransferases
[1] = biological target: Glycine N-methyltransferase (Homo sapiens) (UniProt Q14749); conditions: purified enzyme, MTase-Glo SAH luminescence; measured here: GNMT inhibition; at 40 µM; stronger effect = lower value
Method in brief: (§1)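 Each enzyme was reacted with SAM and its substrate, with compounds tested once at 40 uM; SAH formed was read by MTase-Glo luminescence.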

[2] = biological target: Guanidinoacetate N-methyltransferase (Homo sapiens) (UniProt Q14353); conditions: purified enzyme, MTase-Glo SAH luminescence; measured here: GAMT inhibition; at 40 µM; stronger effect = lower value
Method in brief: as §1

[3] = biological target: Histamine N-methyltransferase (Homo sapiens) (UniProt P50135); conditions: purified enzyme, MTase-Glo SAH luminescence; measured here: HNMT inhibition; at 40 µM; stronger effect = lower value
Method in brief: as §1

[4] = biological target: Nicotinamide N-methyltransferase (Homo sapiens) (UniProt P40261); conditions: purified enzyme, MTase-Glo SAH luminescence; measured here: NNMT inhibition; at 40 µM; stronger effect = lower value
Method in brief: as §1

[5] = biological target: Phenylethanolamine N-methyltransferase (Homo sapiens) (UniProt P11086); conditions: purified enzyme, MTase-Glo SAH luminescence; measured here: PNMT inhibition; at 40 µM; stronger effect = lower value
Method in brief: as §1
% is set by controls: 0 for no effect and ±100 for the full control effect.

Structure (SMILES) | activity change, negative = inhibition [1] | activity change, negative = inhibition [2] | activity change, negative = inhibition [3] | activity change, negative = inhibition [4] | activity change, negative = inhibition [5]
c1ccc(CN2CCn3c4c(c5cc(C6CCCCC6)ccc53)CCCC42)cc1 (stereo not drawn) | 7.69% | -1.36% | 9.03% | 12.5% | 2.85%
CSc1ccc(CCNC(=O)CCc2nnc3ccc(NCCCN4CCCC4=O)nn23)cc1 | 1.07% | 1.82% | 0.405% | -7.88% | 4.15%
COC(=O)c1ncn2c1C(=O)N(c1ccc(C(C)C)cc1)C(C)(C(=O)NCc1ccccc1)C2 (stereo not drawn) | -14.3% | -3.63% | -9.45% | -7.25% | -9.63%
CC1(C)CN(C(=O)c2ccnc(-n3cnnc3)c2)CC1(C)O (stereo not drawn) | -6.17% | -10.3% | -4.62% | -12.5% | -7.65%
O=C(O)C1=CCCNC1 | 3.19% | 9.36% | 8.53% | -8.26% | -2.05%
COc1cc(-c2nn(C3CCC(N4CCN(C(C)=O)CC4)CC3)c3ncnc(N)c23)ccc1NC(=O)c1cc2ccccc2n1C (stereo not drawn) | -4.9% | 4.28% | -3.94% | -16.3% | -7%
CCCn1c(=O)c2ccc(C(=O)NC3CCCC3)cc2n2c(=O)n(CC(=O)c3ccc(C)cc3C)nc12 | 3.46% | 2.4% | 5.89% | -1.29% | 0.854%
CC(/C=C/C1(O)C(C)CC(O)CC1(C)C)OC1OC(CO)C(O)C(O)C1O (stereo not drawn) | 0.065% | 8.27% | 13.5% | -3.33% | 5.4%
CCCn1c(=O)c2cc(F)ccc2n2c(SCc3ccc(F)cc3Cl)nnc12 | -9.32% | 0.035% | 2.39% | -11.9% | 1.12%
CN1CCN(CCOc2cc(OC3CCOCC3)c3c(Nc4c(Cl)ccc5c4OCO5)ncnc3c2)CC1 | -29.3% | -4.15% | -81.2% | -50.4% | -20.4%
CC1OC(O[C@H]2CC[C@@]3(C)C(CC[C@]4(C)C3CC=C3C5CC(C)(C)CC[C@]5(C(=O)OC5OC(CO)C(OC6OCC(OC7OCC(O)C(O)C7O)C(O)C6O)C(O)C5O)CC[C@]34C)C2(C)C)C(O)C(O)C1OC1OC(CO)C(O)C(OC2OC(CO)C(O)C(O)C2O)C1O (stereo partly drawn) | -2.63% | -1.94% | -5.17% | -7.36% | 1.15%
O=C(CCc1nnn2c1CN(C(=O)NCc1ccccc1)CC2)N1CCCC1 | 2.05% | -0.796% | -0.86% | -0.62% | -10.3%
CC1CCN(S(=O)(=O)c2ccc3c(ccn3CC(=O)NCc3ccccc3Cl)c2)CC1 | 2.24% | 0% | 2.49% | -1.75% | 1.27%
O=C(Cn1c(=O)oc2cc(S(=O)(=O)NCc3ccccc3)ccc21)NCc1ccc(Cl)cc1 | -6.1% | 0.652% | -8.26% | -14.9% | -5.47%
O=C(O)c1ccc(OC2OC(CO)C(O)C(O)C2O)cc1 (stereo not drawn) | 3.55% | 0.517% | 10.6% | -13.3% | 5.21%
O=C(NCC1CN(c2ccc(N3CCOCC3=O)cc2)C(=O)O1)c1ccc(Cl)s1 (stereo not drawn) | -6.46% | -7.4% | -0.946% | -20.1% | -5.34%
C[C@@H](N)c1ccc(C(=O)Nc2ccnc3[nH]ccc23)cc1 | 2.69% | 4.63% | 4.89% | -14.8% | 4.26%
COc1ccccc1CNC(=O)c1cc2n(n1)CC(C)(C(=O)NC1CCCCC1)N(C)C2=O (stereo not drawn) | 6.95% | 0% | 2.83% | 8.81% | 2.73%
Nc1ccc(S(=O)(=O)Nc2ccnn2-c2ccccc2)cc1 | -2.27% | 6.19% | 0.111% | -3.25% | 5.14%

Structure (SMILES) | activity change, negative = inhibition [1] | activity change, negative = inhibition [2] | activity change, negative = inhibition [3] | activity change, negative = inhibition [4] | activity change, negative = inhibition [5]
O=C(O)c1ccc(CN2CCC(CN[C@@H]3C[C@H]3c3ccccc3)CC2)cc1 | -3.43% | 4.38% | -2.29% | -16.1% | -9.54%
CC(C)c1nnc(-c2ccc(-c3ccccc3)nc2)n1-c1cccc2nonc12 | 4% | 5.84% | 11.8% | -19.3% | -4.58%
COc1ccc(CN2C(=O)c3cc(-c4ccco4)nn3CC2(C)C(=O)NC2CCCCC2)cc1 (stereo not drawn) | -1.92% | 5.29% | 3.66% | -8.13% | -1.14%
Cc1ccccc1CCN1C(=O)c2cc3ccccc3n2CC1(C)C(=O)NCCC(C)C (stereo not drawn) | -4.98% | 0.693% | -6.3% | -9.41% | -9.34%
CCN(CCCNC(=O)CCc1nnc2n(Cc3ccc(F)cc3)c(=O)c3ccccc3n12)c1cccc(C)c1 | -4.5% | 4.33% | -0.827% | 0.175% | -3.46%
COCCN1CC(CO)C2(CCN(C3CCC3)CC2)C1 (stereo not drawn) | -3.35% | -3.82% | -7.13% | -6.81% | -0.716%
CC1(C(=O)NC2CCCC2)Cn2c(ccc2-c2ccco2)C(=O)N1C1CC1 (stereo not drawn) | 6.36% | 0.368% | 7.95% | 14.7% | 4.43%
COc1cc(/C=C(\C#N)C(N)=O)cc(CSc2nc3ccccc3s2)c1O |  | -0.69% |  | -17.8% | 2.99%
CC(=O)c1ccc(OCC(=O)N2CCCCC2)cc1 | -7.66% | -11.3% | 3.73% | -14.6% | -3.7%
COCCNC(=O)c1ccc(OC2CCN(Cc3ccc(OC)cc3F)CC2)c(Cl)c1 | -5.05% | 0.39% | -20.1% | -5.53% | -0.357%
O=C(CCc1nnc2n(CCc3ccccc3)c(=O)c3ccccc3n12)NCc1ccccc1Cl | -11.4% | -5.68% | -6.56% | -13.9% | -19.4%
C=CC(C)(O)CC/C=C(\C)C(=O)OC1CC2(C(=O)O)CCC3(C)C(=CCC4C5(C)CCC(OC6OC(COC7OCC(O)C(O)C7O)C(O)C(OC7OCC(O)C(O)C7O)C6OC6OC(CO)C(O)C(O)C6OC6OCC(O)C(O)C6O)C(C)(C)C5CCC43C)C2CC1(C)C (stereo not drawn) | 3.63% | 19.4% | 11.5% | 1.37% | 10%
C[C@H]1[C@@H]2[C@@H](O)C([C@H](C)C(=O)N3CCCC3)CC[C@@]2(C)CC[C@@H]1NC(=O)Nc1cccc(F)c1 (stereo partly drawn) | 2.19% | 2.14% | 1.16% | -0.491% | 3.77%
C=CC(C)(O)CC/C=C(\C)C(=O)O[C@@H]1[C@@H](O)[C@H](OC(C)(C=C)CC/C=C(\C)C(=O)O)O[C@H](CO)[C@H]1OC(=O)/C(C)=C/CCC(C)(O)C=C (stereo partly drawn) | -0.712% | 5.15% | 4.99% | -7.61% | 4.02%
CC(C)Cn1c(=O)c2ccccc2n2c(CCC(=O)N3CCN(C4CCCCC4)CC3)nnc12 | -9.88% | 6.31% | -21.7% | -19.4% | -2.23%
C=C1C[C@]23C[C@H]1CC[C@H]2[C@]1(C)CCC[C@@]2(CO)C(=O)O[C@H]([C@H]21)[C@@H]3O | 0% | 4.96% | 10.3% | -9.51% | 0.279%
CN1C(=O)c2cc(C(=O)NCc3ccccc3Cl)nn2CC1(C)C(=O)NC1CCCC1 (stereo not drawn) | 3.08% | 4.99% | -2.47% | 6.64% | 1.59%
CC1=CC(=O)CC(C)(CO)C1(O)/C=C/C(C)O[C@@H]1O[C@H](CO)[C@@H](O)[C@H](O)[C@H]1O (stereo partly drawn) | 4.99% | 0.843% | 8.75% | -6.88% | -1.45%
CC1=C(CC(=O)O)c2cc(F)ccc2C1=Cc1ccc(S(C)(=O)=O)cc1 | -17.7% | -3.94% | 10.2% | -13.3% | -0.697%

Structure (SMILES) | activity change, negative = inhibition [1] | activity change, negative = inhibition [2] | activity change, negative = inhibition [3] | activity change, negative = inhibition [4] | activity change, negative = inhibition [5]
C#Cc1cccc(Nc2nc3cc(C(=O)O)ccc3c3cncnc23)c1 | -28.1% | -11.6% | -26.7% | -22.9% | -24.6%
CCCn1c(=O)c2cc(Cl)ccc2n2c(SCC(=O)Nc3ccc(OC)c(OC)c3)nnc12 | 3.24% | 6.05% | 6.16% | 0.016% | 4.58%
Cc1ccccc1Cn1nc2n(CCC(C)C)c(=O)c3ccccc3n2c1=O | 5.93% | 1.59% | 6.82% | -1.04% | 6.16%
CC1(C)C2CC[C@@]34CC(CC[C@H]3[C@]2(C)CC[C@@H]1O[C@@H]1O[C@H](CO)[C@@H](O)[C@H](O)[C@H]1O)[C@](C)(O)C4 (stereo partly drawn) | 7.51% | 7.22% | 8.79% | -6.13% | 2.87%
Nc1ncnc2c1nc(N)n2[C@@H]1O[C@H](CO)[C@@H](O)[C@H]1O | 94.5% | 177% | 26.3% | 178% | 51.2%
CCC(C(=O)NC1CC1)n1ccc2cc(S(=O)(=O)N3CCCCC3)ccc21 (stereo not drawn) | 2.37% | 3.66% | 5.29% | 4.05% | 3.58%
Cc1ccc(Cl)cc1N1C(=O)c2cc(-c3cccs3)nn2CC1(C)C(=O)NC1CCCCC1 (stereo not drawn) | 4.98% | 0% | 8.2% | 12% | 4.91%
CC1(NC(=O)C2CC2)CN(Cc2nc(-c3ccccc3OCc3ccccc3)cs2)C1 | -6.98% | -6.64% | -10.8% | -13.7% | -1.3%
O=C(c1cccs1)N1CCC2(CC1)CN(C1CCC1)CC2CO (stereo not drawn) | -5.25% | -8.67% | -5.03% | -12.8% | -5.72%
CCCCNC(=O)c1ncn2c1C(=O)N(CCC)C(C)(C(=O)NCCC(C)C)C2 (stereo not drawn) | 3.95% | 0.505% | 7.87% | 8.43% | 9.47%
COc1ccccc1CNc1nc2c(-c3cccc(Br)c3)nnn2c2ccccc12 | -9.41% | 0.03% | -1.76% | -8.72% | -7.1%
O=C(Cn1nc(-c2ccccc2)c2ccccc21)N1CCN(c2ccccc2F)CC1 | -7% | 0% | -4.24% | 0.306% | -2.85%
COc1cccc(Nc2cc(C(=O)NCc3cccnc3)c3c(c2)ncn3C)c1 | -8.87% | -1.61% | -39.3% | -9.59% | -8.32%
CCOc1ccc(NC(=O)N2Cc3c(sc4c3CCCC4)-n3cccc3C2c2ccccc2)cc1 (stereo not drawn) | -0.596% | 0% | 0.42% | -1.76% | 1.6%
C/C=C(\C)C(=O)O[C@H]1C=CC(=O)O[C@H]1/C=C/[C@@H](O)[C@H](C)O | -1.13% | -7.66% | 4.18% | -16.4% | 0.602%
CC1(C(=O)NC2CCCCC2)Cn2c(cc3occc32)C(=O)N1Cc1cccc(F)c1 (stereo not drawn) | 4.26% | 0.585% | 5.91% | 3.89% | 5.59%
CCC1CCCCN1S(=O)(=O)c1ccc2c(c1)n(C)c(=O)n2C (stereo not drawn) | -2.63% | 2.29% | -9.42% | -15.8% | -10.6%
COc1ccc(-c2cc3n(n2)CC(C)(C(=O)NCc2ccccc2)N(c2ccc(C(C)C)cc2)C3=O)cc1 (stereo not drawn) | 8.01% | 0% | 9.84% | 11.3% | 1.57%
CC(C)(C)[C@]1(O)CCN2C[C@H]3c4ccccc4CCc4cccc(c43)[C@@H]2C1 | 0.471% and -8.64% | 14.7% and 18.2% | -15.4% and -26.6% | -7.54% and -10.4% | 5.15% and 5.54%
